{"source": "paper PMC4336329", "about": "(PLoS ONE, 2015)", "note": "About 14,000 (4.5%) of roughly 310,000 compounds showed an effect of 50% or more. The effect is printed as a negative number. Some of the results follow.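 Also: peak tail current of the secondary pulse compared with the same well before compound.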"}
{"target": "human ether-à-go-go-related gene (hERG) potassium channel (human, UniProt Q12809)", "sequence (Q12809 whole entry, looked up)": "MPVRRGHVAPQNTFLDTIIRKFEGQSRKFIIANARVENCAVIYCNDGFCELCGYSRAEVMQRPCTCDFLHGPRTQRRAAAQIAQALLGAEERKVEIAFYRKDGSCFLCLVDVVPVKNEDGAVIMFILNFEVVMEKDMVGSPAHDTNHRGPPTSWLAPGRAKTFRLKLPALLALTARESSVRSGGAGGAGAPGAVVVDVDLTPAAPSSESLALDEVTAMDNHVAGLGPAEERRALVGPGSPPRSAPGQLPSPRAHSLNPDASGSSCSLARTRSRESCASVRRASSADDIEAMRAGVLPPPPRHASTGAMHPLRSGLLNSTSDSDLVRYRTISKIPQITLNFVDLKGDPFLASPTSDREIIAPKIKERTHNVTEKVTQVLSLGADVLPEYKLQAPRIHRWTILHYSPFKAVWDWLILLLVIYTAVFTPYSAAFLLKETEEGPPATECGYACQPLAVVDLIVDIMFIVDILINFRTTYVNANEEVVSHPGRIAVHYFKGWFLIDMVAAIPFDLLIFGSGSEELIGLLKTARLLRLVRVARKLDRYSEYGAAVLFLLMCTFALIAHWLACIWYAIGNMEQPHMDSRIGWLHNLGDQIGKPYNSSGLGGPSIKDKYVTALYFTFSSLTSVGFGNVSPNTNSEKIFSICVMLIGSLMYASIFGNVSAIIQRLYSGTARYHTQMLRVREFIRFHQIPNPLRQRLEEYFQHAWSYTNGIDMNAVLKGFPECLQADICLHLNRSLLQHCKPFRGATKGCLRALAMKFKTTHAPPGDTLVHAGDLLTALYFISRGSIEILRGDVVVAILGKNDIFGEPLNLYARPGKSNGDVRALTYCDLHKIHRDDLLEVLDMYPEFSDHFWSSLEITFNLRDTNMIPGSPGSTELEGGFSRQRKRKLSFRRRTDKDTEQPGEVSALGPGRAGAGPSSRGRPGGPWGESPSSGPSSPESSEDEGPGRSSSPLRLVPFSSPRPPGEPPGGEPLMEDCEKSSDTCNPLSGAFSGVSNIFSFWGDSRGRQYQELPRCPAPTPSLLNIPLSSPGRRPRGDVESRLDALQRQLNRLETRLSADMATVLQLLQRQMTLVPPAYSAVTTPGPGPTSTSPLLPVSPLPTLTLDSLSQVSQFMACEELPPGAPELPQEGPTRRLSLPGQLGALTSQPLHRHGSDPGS", "assay": "primary screen, population patch clamp on CHO cells stably expressing hERG", "units": {"hERG current change (%, negative = inhibition) at 10uM": "%"}}
{"molecule": "CCOC(=O)CNC(=S)N(Cc1ccccc1F)C1CCCCC1", "hERG current change (%, negative = inhibition) at 10uM": -73}
{"molecule": "CCOc1ccccc1N1CC(C(=O)Nc2cc(Cl)ccc2-n2cncn2)CC1=O", "note": "(stereo not shown)", "hERG current change (%, negative = inhibition) at 10uM": -10.3}
{"molecule": "CC(=O)Nc1nnc(CCN2CCCCC2)s1", "hERG current change (%, negative = inhibition) at 10uM": 4.46}
{"molecule": "COC(=O)c1sc(=S)n(-c2cccc(Cl)c2)c1N", "hERG current change (%, negative = inhibition) at 10uM": -3.38}
{"molecule": "O=C(c1cc2c(=O)n3ccccc3nc2s1)N1CCN(c2cccc(Cl)c2)CC1", "hERG current change (%, negative = inhibition) at 10uM": -5.97}
{"molecule": "COc1ccc(NS(=O)(=O)c2cccc(NC(=O)C34CCC(CC3)C4)c2)cc1", "hERG current change (%, negative = inhibition) at 10uM": -4.6}
{"molecule": "Cc1ccc(N2C(=O)NC(NC(=O)C(C)(C)C)(C(F)(F)F)C2=O)cc1", "note": "(stereo not shown)", "hERG current change (%, negative = inhibition) at 10uM": 2.01}
{"molecule": "CCC(=O)Nc1cc2c(cc1C(C)=O)OCCO2", "hERG current change (%, negative = inhibition) at 10uM": 18.1}
{"molecule": "CC(OC(=O)CCSc1ccccc1)C(=O)Nc1ccc(S(N)(=O)=O)cc1", "note": "(stereo not shown)", "hERG current change (%, negative = inhibition) at 10uM": 0.483}
{"molecule": "CC1(C)CC(c2nc(-c3ccc(Br)cc3)cs2)CCS1.Cl", "note": "(stereo not shown)", "hERG current change (%, negative = inhibition) at 10uM": 4.05}
{"molecule": "COc1ccc(NC(=O)c2cccc(N3C(=O)C4CC=C(C)CC4C3=O)c2)c(OC)c1", "note": "(stereo not shown)", "hERG current change (%, negative = inhibition) at 10uM": -6.14}
{"molecule": "CCOC(=O)N1CCN(C(=O)c2ccccc2NC(=O)c2ccc(OC)cc2)CC1", "hERG current change (%, negative = inhibition) at 10uM": 3.96}
{"molecule": "Cn1ccnc1SCC(=O)c1cc2ccccc2o1", "hERG current change (%, negative = inhibition) at 10uM": 4.65}
{"molecule": "Cc1sc2ncnc(N3CCC(C(=O)NNC(=O)c4ccc(Cl)cc4)CC3)c2c1C", "hERG current change (%, negative = inhibition) at 10uM": -11.2}
{"molecule": "O=C(CN1C(=O)S/C(=C\\c2ccccc2F)C1=O)NC1C=CS(=O)(=O)C1", "note": "(stereo not shown)", "hERG current change (%, negative = inhibition) at 10uM": 15.9}
{"molecule": "CC(=O)c1ccc(N(CC(=O)NCCc2ccccc2)C(=O)c2csnn2)cc1", "hERG current change (%, negative = inhibition) at 10uM": -52.4}
{"molecule": "O=C(CSc1nc2ccccc2s1)CSc1nc2ccccc2s1", "hERG current change (%, negative = inhibition) at 10uM": -6.73}
{"molecule": "O=C(C(=O)N1CCOCC1)c1cn(CC(=O)N2CCCCC2)c2ccccc12", "hERG current change (%, negative = inhibition) at 10uM": 3.83}
{"molecule": "CC(C)(C)OC(=O)N[C@H](C(=O)OC(C)(C)C)c1ccccc1", "hERG current change (%, negative = inhibition) at 10uM": 16}
{"molecule": "O=C(NCc1cccnc1)c1cccc(NS(=O)(=O)c2ccc(Br)cc2)c1", "hERG current change (%, negative = inhibition) at 10uM": -12.1}
{"molecule": "COCCNC(=O)COc1ccc(Br)cc1Cl", "hERG current change (%, negative = inhibition) at 10uM": 10.4}
{"molecule": "CC(=O)Nc1ccc(S(=O)(=O)N2CCN(C(=O)N3CCCC3)CC2)cc1", "hERG current change (%, negative = inhibition) at 10uM": 15.4}
{"molecule": "CC(C)OCCCNC(=O)c1ccccc1NC(=O)C1=CSCCO1", "hERG current change (%, negative = inhibition) at 10uM": 17.4}
{"molecule": "Cc1c(-c2ccccc2)nc2ccccc2c1C(=O)NCc1cccs1", "hERG current change (%, negative = inhibition) at 10uM": -21.2}
{"molecule": "CSCC[C@H](NC(=O)CCn1nnc2ccccc2c1=O)C(=O)O", "hERG current change (%, negative = inhibition) at 10uM": 3.85}
{"molecule": "CCOC(=O)C1CCC(CN(Cc2ccccc2)S(=O)(=O)c2ccc([N+](=O)[O-])cc2)CC1", "note": "(stereo not shown)", "hERG current change (%, negative = inhibition) at 10uM": -10.2}
{"molecule": "CC(=O)c1ccc(NC(=O)Cc2cccs2)cc1", "hERG current change (%, negative = inhibition) at 10uM": 10.3}
{"molecule": "CN(CCc1ccccc1)C1CCCN(S(=O)(=O)c2cccc(F)c2)C1", "note": "(stereo not shown)", "hERG current change (%, negative = inhibition) at 10uM": -48.1}
{"molecule": "COC(=O)C1=CN(C)C=C(C(=O)OC)C1c1ccc(O)c(OC)c1", "hERG current change (%, negative = inhibition) at 10uM": -18}
{"molecule": "O=C(CN1CCN(Cc2ccccc2Cl)CC1)N/N=C/C=C/c1ccco1", "hERG current change (%, negative = inhibition) at 10uM": -68.5}
{"molecule": "O=C(c1cc(C(=O)N2CCOCC2)c2nc3ccccc3n2c1)c1cc(Cl)cc(Cl)c1O", "hERG current change (%, negative = inhibition) at 10uM": -18.9}
{"molecule": "O=C(O)C(=O)O.O=[N+]([O-])c1ccccc1S(=O)(=O)N1CCN(CC2CC=CCC2)CC1", "note": "(stereo not shown)", "hERG current change (%, negative = inhibition) at 10uM": -38.7}
{"molecule": "COc1ccc(OCC(=O)N2c3ccc(C)cc3C3CN(C)CCC32)cc1", "note": "(stereo not shown)", "hERG current change (%, negative = inhibition) at 10uM": -5.12}
{"molecule": "COc1ccccc1CNc1ncnc2c1nnn2Cc1ccccc1", "hERG current change (%, negative = inhibition) at 10uM": 3.85}
{"molecule": "COc1ccc(NC(=O)Cc2nnc(SCC(=O)c3ccccc3)n2C)cc1", "hERG current change (%, negative = inhibition) at 10uM": 7.09}
{"molecule": "CC(C)C(=O)Nc1csc(C(F)(F)F)c1-c1ccccc1", "hERG current change (%, negative = inhibition) at 10uM": -11.3}
{"molecule": "Cc1cc(C)c2c(=O)n(CC(=O)NCCCN3CCOCC3)sc2n1", "hERG current change (%, negative = inhibition) at 10uM": 11.4}
{"molecule": "CCOC1OC2C(CO)OC(n3cnc4c(N)ncnc43)C2O1", "note": "(stereo not shown)", "hERG current change (%, negative = inhibition) at 10uM": -1.52}
{"molecule": "Cc1onc(-c2ccccc2Cl)c1C(=O)NCCN1Cc2ccccc2C1=O", "hERG current change (%, negative = inhibition) at 10uM": -7.66}
{"molecule": "CCC1(c2ccc(F)cc2)NC(=O)N(CC(=O)Nc2cc(C)on2)C1=O", "note": "(stereo not shown)", "hERG current change (%, negative = inhibition) at 10uM": 8.19}
{"molecule": "CCS(=O)(=O)NCCc1csc(-c2ccc(OC)c(OC)c2)n1", "hERG current change (%, negative = inhibition) at 10uM": 6.6}
{"molecule": "O=C(O)C1CC=CCC1C(=O)NC1CCCCC1", "note": "(stereo not shown)", "hERG current change (%, negative = inhibition) at 10uM": 10.1}
{"molecule": "CC(C)(C)c1ccc(C(=O)NCC(=O)OCC(=O)N2CCCC2)cc1", "hERG current change (%, negative = inhibition) at 10uM": 4.86}
